In publication PMC9911399, “Two distinct binding modes provide the RNA-binding protein RbFox with extraordinary sequence specificity” one finds binding signal data, which are given here for 31 molecules.

Changes are numbered by the printed parent chain; changes in the protein carry UniProt numbers. This is one part of the list.

B1: AUCGUCG (DNA:RNA)
RNA: GGGAGACCGGAAUUCAGAUUGUCCAUCGUCGUUAAAUCCCGUCGUAGCCACCA
DNA 1: CAATCTGAATTCCGGTCTCCC
DNA 2: TGGTGGCTACGACGGGATT
B2: GUCAUAA (DNA:RNA)
RNA: B1 RNA with A25G, G28A, C30A, G31A
DNA 1: CAATCTGAATTCCGGTCTCCC
DNA 2: TGGTGGCTACGACGGGATT
B3: CGUUCCG (DNA:RNA)
RNA: B1 RNA with A25C, U26G, C27U, G28U, U29C
DNA 1: CAATCTGAATTCCGGTCTCCC
DNA 2: TGGTGGCTACGACGGGATT
B4: CUCGUCC (DNA:RNA)
RNA: B1 RNA with A25C, G31C
DNA 1: CAATCTGAATTCCGGTCTCCC
DNA 2: TGGTGGCTACGACGGGATT
B5: AGUCUGC (DNA:RNA)
RNA: B1 RNA with U26G, C27U, G28C, C30G, G31C
DNA 1: CAATCTGAATTCCGGTCTCCC
DNA 2: TGGTGGCTACGACGGGATT
B6: GGCGGAG (DNA:RNA)
RNA: B1 RNA with A25G, U26G, U29G, C30A
DNA 1: CAATCTGAATTCCGGTCTCCC
DNA 2: TGGTGGCTACGACGGGATT
B7: UUCCUGA (DNA:RNA)
RNA: B1 RNA with A25U, G28C, C30G, G31A
DNA 1: CAATCTGAATTCCGGTCTCCC
DNA 2: TGGTGGCTACGACGGGATT
B8: UACAAGA (DNA:RNA)
RNA: B1 RNA with A25U, U26A, G28A, U29A, C30G, G31A
DNA 1: CAATCTGAATTCCGGTCTCCC
DNA 2: TGGTGGCTACGACGGGATT
B9: UCAGUGC (DNA:RNA)
RNA: B1 RNA with A25U, U26C, C27A, C30G, G31C
DNA 1: CAATCTGAATTCCGGTCTCCC
DNA 2: TGGTGGCTACGACGGGATT
B10: UUGUCCA (DNA:RNA)
RNA: B1 RNA with A25U, C27G, G28U, U29C, G31A
DNA 1: CAATCTGAATTCCGGTCTCCC
DNA 2: TGGTGGCTACGACGGGATT
B11: ACUGUAG (DNA:RNA)
RNA: B1 RNA with U26C, C27U, C30A
DNA 1: CAATCTGAATTCCGGTCTCCC
DNA 2: TGGTGGCTACGACGGGATT
B12: GAUCGAA (DNA:RNA)
RNA: GGGAGACCGGAAUUCAGAUUGUCCGAUCGAAUUAAAUCCCGUCGUAGCCACCA
DNA 1: CAATCTGAATTCCGGTCTCCC
DNA 2: TGGTGGCTACGACGGGATT
B13: AACCCUG (DNA:RNA)
RNA: B1 RNA with U26A, G28C, U29C, C30U
DNA 1: CAATCTGAATTCCGGTCTCCC
DNA 2: TGGTGGCTACGACGGGATT
B14: CAGCAGG (DNA:RNA)
RNA: B12 RNA with G25C, U27G, G29A, A30G, A31G
DNA 1: CAATCTGAATTCCGGTCTCCC
DNA 2: TGGTGGCTACGACGGGATT
B15: UCUAUGA (DNA:RNA)
RNA: B12 RNA with G25U, A26C, C28A, G29U, A30G
DNA 1: CAATCTGAATTCCGGTCTCCC
DNA 2: TGGTGGCTACGACGGGATT
B16: GCAUGGC (DNA:RNA)
RNA: B12 RNA with A26C, U27A, C28U, A30G, A31C
DNA 1: CAATCTGAATTCCGGTCTCCC
DNA 2: TGGTGGCTACGACGGGATT
B17: UCUGACG (DNA:RNA)
RNA: B1 RNA with A25U, U26C, C27U, U29A
DNA 1: CAATCTGAATTCCGGTCTCCC
DNA 2: TGGTGGCTACGACGGGATT
B18: UGCCUGU (DNA:RNA)
RNA: B1 RNA with A25U, U26G, G28C, C30G, G31U
DNA 1: CAATCTGAATTCCGGTCTCCC
DNA 2: TGGTGGCTACGACGGGATT
B19: GGCUGUU (DNA:RNA)
RNA: B12 RNA with A26G, U27C, C28U, A30U, A31U
DNA 1: CAATCTGAATTCCGGTCTCCC
DNA 2: TGGTGGCTACGACGGGATT
B20: CAAGCUA (DNA:RNA)
RNA: B12 RNA with G25C, U27A, C28G, G29C, A30U
DNA 1: CAATCTGAATTCCGGTCTCCC
DNA 2: TGGTGGCTACGACGGGATT
B21: UAGGGAG (DNA:RNA)
RNA: B12 RNA with G25U, U27G, C28G, A31G
DNA 1: CAATCTGAATTCCGGTCTCCC
DNA 2: TGGTGGCTACGACGGGATT
B22: GUAGUUG (DNA:RNA)
RNA: B1 RNA with A25G, C27A, C30U
DNA 1: CAATCTGAATTCCGGTCTCCC
DNA 2: TGGTGGCTACGACGGGATT
B23: GGGCAGU (DNA:RNA)
RNA: B12 RNA with A26G, U27G, G29A, A30G, A31U
DNA 1: CAATCTGAATTCCGGTCTCCC
DNA 2: TGGTGGCTACGACGGGATT
B24: AAAUGGG (DNA:RNA)
RNA: B1 RNA with U26A, C27A, G28U, U29G, C30G
DNA 1: CAATCTGAATTCCGGTCTCCC
DNA 2: TGGTGGCTACGACGGGATT
B25: CCCUUGA (DNA:RNA)
RNA: B1 RNA with A25C, U26C, G28U, C30G, G31A
DNA 1: CAATCTGAATTCCGGTCTCCC
DNA 2: TGGTGGCTACGACGGGATT
B26: CUCUAUU (DNA:RNA)
RNA: B1 RNA with A25C, G28U, U29A, C30U, G31U
DNA 1: CAATCTGAATTCCGGTCTCCC
DNA 2: TGGTGGCTACGACGGGATT
B27: CAUGGAG (DNA:RNA)
RNA: B12 RNA with G25C, C28G, A31G
DNA 1: CAATCTGAATTCCGGTCTCCC
DNA 2: TGGTGGCTACGACGGGATT
B28: GAGUCGU (DNA:RNA)
RNA: B12 RNA with U27G, C28U, G29C, A30G, A31U
DNA 1: CAATCTGAATTCCGGTCTCCC
DNA 2: TGGTGGCTACGACGGGATT
B29: GUCACUU (DNA:RNA)
RNA: B1 RNA with A25G, G28A, U29C, C30U, G31U
DNA 1: CAATCTGAATTCCGGTCTCCC
DNA 2: TGGTGGCTACGACGGGATT
B30: GCGGAGU (DNA:RNA)
RNA: B1 RNA with A25G, U26C, C27G, U29A, C30G, G31U
DNA 1: CAATCTGAATTCCGGTCTCCC
DNA 2: TGGTGGCTACGACGGGATT
B31: UCAUGGC (DNA:RNA)
RNA: B12 RNA with G25U, A26C, U27A, C28U, A30G, A31C
DNA 1: CAATCTGAATTCCGGTCTCCC
DNA 2: TGGTGGCTACGACGGGATT

For this test, the target named is T1, RBFOX1 RRM RbFoxmut (Fox-RRM*) (Homo sapiens, UniProt Q9NWB1 109-208, R118D;E147R;N151S;E152T).
T1 sequence: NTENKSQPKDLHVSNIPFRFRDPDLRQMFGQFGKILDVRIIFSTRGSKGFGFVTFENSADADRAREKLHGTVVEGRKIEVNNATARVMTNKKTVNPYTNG
Description: EMSA; HiTS-Eq, 1 nM pool, 10 min; buffer printed only for the single-RNA assays: 10 mM Tris pH 7.5, 150 mM NaCl, 3.4 mM EDTA, 0.001% NP-40, 30 C. To be noted: tags: His6 N-terminal (pET28a); label: 5' 32P. The method, boiled down:
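Purified RbFox RRM (wild type or mutant) was equilibrated for 10 min in 50 µL with 1 nM of a 5′-radiolabelled pool of RNA with 7 randomized nucleotides, its flanks annealed to DNA oligonucleotides, across increasing protein concentrations. Free RNA was separated by 8% native PAGE, excised, reverse-transcribed, PCR-barcoded and sequenced on an Illumina HiSeq 2500. Relative association constants came from read-count changes of each variant against the control reaction, normalised to the cognate motif.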
A general note: A gel shift assay detects complexes by their altered migration in electrophoresis.
Turning to B1, the binding signal is 0.14 KA relative to UGCAUGU.
Take B2: the binding signal is 0.12 KA relative to UGCAUGU.
In the case of B3, the binding signal is 0.113 KA relative to UGCAUGU.
The value for B4 was 0.0737 KA relative to UGCAUGU; that for B5 was 0.0707 KA relative to UGCAUGU; that for B6 was 0.0884 KA relative to UGCAUGU.
To B7 belongs 0.0673 KA relative to UGCAUGU; to B8, 0.058 KA relative to UGCAUGU; to B9, 0.116 KA relative to UGCAUGU.
Consider B10, for which the binding signal is 0.126 KA relative to UGCAUGU.
To B11 belongs 0.143 KA relative to UGCAUGU; to B12, 0.113 KA relative to UGCAUGU.
As for B13, the binding signal was 0.0815 KA relative to UGCAUGU.
The value for B14 was 0.0987 KA relative to UGCAUGU; that for B15 was 0.11 KA relative to UGCAUGU; that for B16 was 0.497 KA relative to UGCAUGU.
In the case of B17, the binding signal is 0.0906 KA relative to UGCAUGU.
To B18 belongs 0.279 KA relative to UGCAUGU; to B19, 0.11 KA relative to UGCAUGU; to B20, 0.126 KA relative to UGCAUGU.
Regarding B21, the binding signal was 0.105 KA relative to UGCAUGU.
To B22 belongs 0.161 KA relative to UGCAUGU; to B23, 0.0981 KA relative to UGCAUGU.
For the molecule B24, the binding signal was 0.0585 KA relative to UGCAUGU.
The value for B25 was 0.118 KA relative to UGCAUGU.
The value for B26 was 0.107 KA relative to UGCAUGU; that for B27 was 0.123 KA relative to UGCAUGU.
The value for B28 was 0.121 KA relative to UGCAUGU; that for B29 was 0.0681 KA relative to UGCAUGU; that for B30 was 0.135 KA relative to UGCAUGU.
On to B31, for which the binding signal was 0.106 KA relative to UGCAUGU.
